Measured values as given in article PMC4336329 (PLoS ONE, 2015).
Among all 310,000 compounds or so, about 14,000 (4.5%) showed an effect of 50% or more. The effect is printed as a negative number. This is one part of the list.

Molecular target: human ether-à-go-go-related gene (hERG) potassium channel (human, UniProt Q12809)
Assay: primary screen, population patch clamp on CHO cells stably expressing hERG
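Also: peak tail current of the secondary pulse compared with the same well before compound.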

human ether-à-go-go-related gene (hERG) potassium channel, sequence (Q12809 whole entry, looked up): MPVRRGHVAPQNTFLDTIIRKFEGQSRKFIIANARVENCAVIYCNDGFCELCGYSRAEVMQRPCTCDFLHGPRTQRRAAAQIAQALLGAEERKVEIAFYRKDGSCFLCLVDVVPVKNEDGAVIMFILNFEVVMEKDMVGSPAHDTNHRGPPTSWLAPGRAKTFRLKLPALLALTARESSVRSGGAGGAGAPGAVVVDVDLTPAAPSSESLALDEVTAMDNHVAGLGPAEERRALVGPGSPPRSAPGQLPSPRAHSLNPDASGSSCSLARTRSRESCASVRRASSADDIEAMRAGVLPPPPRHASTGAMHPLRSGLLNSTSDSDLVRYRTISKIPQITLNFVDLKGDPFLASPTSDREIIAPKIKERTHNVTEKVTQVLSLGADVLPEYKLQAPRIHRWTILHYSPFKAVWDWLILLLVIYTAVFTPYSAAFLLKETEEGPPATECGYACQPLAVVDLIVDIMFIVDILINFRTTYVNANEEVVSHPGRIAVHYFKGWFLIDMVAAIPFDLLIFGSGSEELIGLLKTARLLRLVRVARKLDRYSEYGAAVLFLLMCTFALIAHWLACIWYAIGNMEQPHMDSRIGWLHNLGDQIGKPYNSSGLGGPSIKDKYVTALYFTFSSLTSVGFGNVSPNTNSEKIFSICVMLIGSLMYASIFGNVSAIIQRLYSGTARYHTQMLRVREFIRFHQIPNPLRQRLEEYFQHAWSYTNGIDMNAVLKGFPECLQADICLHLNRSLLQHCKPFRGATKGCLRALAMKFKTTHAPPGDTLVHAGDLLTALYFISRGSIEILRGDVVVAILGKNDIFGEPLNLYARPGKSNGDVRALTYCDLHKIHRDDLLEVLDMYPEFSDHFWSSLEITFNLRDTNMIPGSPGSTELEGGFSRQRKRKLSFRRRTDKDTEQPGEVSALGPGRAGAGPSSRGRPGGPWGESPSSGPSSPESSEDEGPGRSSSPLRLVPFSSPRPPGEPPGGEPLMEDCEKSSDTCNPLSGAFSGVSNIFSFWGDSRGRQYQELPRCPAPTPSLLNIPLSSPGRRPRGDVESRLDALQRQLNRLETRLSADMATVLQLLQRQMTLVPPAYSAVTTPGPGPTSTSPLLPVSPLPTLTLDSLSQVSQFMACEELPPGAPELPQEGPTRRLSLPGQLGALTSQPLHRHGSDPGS

Structure (SMILES)	hERG current change (%, negative = inhibition) at 10uM [%]
CC1CN(C2CCN(S(=O)(=O)c3ccc4ccccc4c3)CC2)CC(C)O1 (centres unmarked)	-22.5
O=C(CSc1nncn1-c1cccnc1)N1CCOCC1	6.98
COc1cc(/C=C2/OC(=O)c3cc([N+](=O)[O-])ccc32)cc(OC)c1OC	11.3
O=C(Nc1cccc(-c2cn3ccccc3n2)c1)c1ccccc1	-17.6
Cc1ccc(C)c(NS(=O)(=O)c2ccc(-c3coc(C)n3)cc2)c1	22.1
CC1CCC(NC(=O)CN(C)S(=O)(=O)c2ccc3c(c2)CCC(=O)N3)CC1 (centres unmarked)	-7.85
C#CCSc1nccc(-c2nn(-c3ccc(C)cc3)ccc2=O)n1	-5.54
CCOC(=O)c1c(-c2cccc3ccccc23)csc1NC(=O)C1C2CCC(O2)C1C(=O)O (centres unmarked)	4.93
COc1ccccc1NC(=O)N1CCCC1C(=O)NCc1ccc2c(c1)OCO2 (centres unmarked)	11.1
COc1nc(N(C#N)CC(N)=O)nc(N2CCCC2)n1	8.6
Cc1c(NC(=O)c2ccc(N3C(=O)C4C5C=CC(C5)C4C3=O)cc2)c(=O)n(-c2ccccc2)n1C (centres unmarked)	29.3
O=C(CCCOc1ccc(Cl)cc1Cl)Nc1ncccn1	10.6
Cc1cnc(C(=O)N2CCCC(N3CCN(c4cccc(C(F)(F)F)c4)CC3)C2)cn1 (centres unmarked)	-39.7
CN(C)c1ccc(/C=N/NC(=O)c2ccc3nc[nH]c3c2)cc1	-8
COc1ccc(OC)c(NC(=O)CN2CCC(NC(=O)c3ccccc3C)CC2)c1	-12.3
CC(CNC(=O)c1ccc(C#N)cc1)NC(=O)c1ccc(C#N)cc1 (centres unmarked)	-76.6
CCN(CC)Cc1c(C(=O)N/N=C/c2ccco2)nnn1-c1nonc1N	-14.3
Cc1ccc(S(=O)(=O)CCSc2n[nH]c(=O)n2-c2ccccc2)cc1	5.94
COc1ccc(Cl)cc1S(=O)(=O)N1CCC(C(=O)NCC2CCCO2)CC1 (centres unmarked)	-34.1
COCC(C)NCc1cccc([N+](=O)[O-])c1.O=C(O)C(=O)O (centres unmarked)	-21
Cc1ccc(CN2CCNC(=O)C2CC(=O)N2CCN(c3ncccn3)CC2)o1 (centres unmarked)	20.4
Cc1ccc2c(c1)C1CN(C)CCC1N2C(=O)COc1ccc(S(=O)(=O)N2CCOCC2)cc1 (centres unmarked)	-15.8
CCCC#CCN1CCN(C23CC4CC(CC(C4)C2)C3)CC1	-16.1

Structure (SMILES)	hERG current change (%, negative = inhibition) at 10uM [%]
COc1ccc(N2CCN(C(=O)c3cc4ccccc4o3)CC2)cc1	29.9
CC1(C)CC(=O)c2sc(NC(=O)C3COc4ccccc4O3)nc2C1 (centres unmarked)	-13.1
Cn1ccc(-c2ccccc2)c(C#N)c1=O	3.34
COc1ccc(OC)c(NC(=O)C2CCCCC2)c1	12.5
c1ccc2c(c1)CCN(Cc1nnnn1Cc1ccc3c(c1)OCO3)C2	-3.1
Cc1ccc(Cc2c(C)nc3nc(SCC(=O)N4CCC5(CC4)OCCO5)nn3c2C)cc1	-35.5
NC1=NC(=O)S/C1=C\c1ccc(O)cc1	21.4
CCOc1cc(-c2c(C#N)c(=O)[nH]c3c2c(C)nn3-c2ccc(F)cc2)ccc1O	16.7
COc1ccccc1NC(=O)COC(=O)c1cnccn1	13
CCCCCCCCCCCC(=O)N/N=C/c1ccco1	-11.2
COc1ccccc1Oc1coc2cc(O)ccc2c1=O	7.33
Cc1c(C(=O)O)sc(=S)n1-c1ccccc1	2.83
CCOC(=O)N1CCN(c2c(-c3ccc(C(C)C)cc3)c(=O)c2=O)CC1	-29.5
O=C(NC1CCCC1)C1CCN(C(=O)c2ccc(-c3ccccc3)cc2)CC1	-24.8
COc1ccccc1N1CCN(C(=O)c2cc3n(n2)C(C(F)(F)F)CC(c2ccco2)N3)CC1 (centres unmarked)	-1.94
O=C(CN1C(=O)NC2(CCCC2)C1=O)OCc1ccc(Cl)c(Cl)c1	-5.11
O=C(CCSCCc1ccccn1)Nc1ccc(Br)cc1F	-44
Cc1nn(-c2ccccc2)c(Cl)c1/C=C1\SC(=S)N(C)C1=O	24.9
CC(C)(C)c1ccc(C(=O)NNC(=O)Cc2cccc3ccccc23)cc1	5.88
Clc1ccc(Nc2ncnc3c2cnn3-c2ccccc2)cc1	-10.4
O=C1C2CCCCN2C(=O)N1CCCCN1CCN(c2cccc(Cl)c2)CC1 (centres unmarked)	-60.6
COc1ccc2[nH]c(C(=O)N/N=C/c3ccc(O)cc3O)cc2c1	17.4
CCCn1c(N)c(N(CCOC)C(=O)c2cc(C)cc(C)c2)c(=O)[nH]c1=O	16.4

Structure (SMILES)	hERG current change (%, negative = inhibition) at 10uM [%]
Cc1ccccc1/C=C/C12NC(=O)CN1c1ccccc1C2(C)C (centres unmarked)	-6.65
O=C(N/N=C\c1ccc(Cl)cc1)C1=NOC2COC3(CCN(c4ccc([N+](=O)[O-])cc4)CC3)OCC12 (centres unmarked)	-21.9
CC12CCC(=O)N1C(C(=O)Nc1nc3ccc(F)cc3s1)CS2 (centres unmarked)	-12.4
CC(Sc1nc2ccccc2n1C)C(=O)Nc1ccc(N2CCOCC2)cc1 (centres unmarked)	-6.56
COc1ccccc1NC(=S)NC(C)=O	49
Cc1ccc(OCCC(=O)Nc2ccc3c(c2)OCCCO3)cc1	0.463
Cc1ccc(S(=O)(=O)N(C)C)cc1NC(=O)COC(=O)/C(=C/c1ccc(F)cc1)c1cccs1	-1.8
NC(=O)CSc1nc2ccccc2nc1SCC(N)=O	7.83
COc1ccc(-c2nnc(SCC(=O)NNC(=O)c3ccc(C)cc3)o2)cc1	-4.63
COc1ccc(OCCCC(=O)Nc2cc(S(=O)(=O)N3CCCCC3)ccc2C)cc1	-9.42
COc1ccc(O)c(-c2c(-c3ccc(Cl)cc3)n[nH]c2C)c1	-23.6
COc1ccccc1NC(=O)COc1ccc(CO)cc1Cl	4.71
COC(=O)Cn1c(CCS(=O)(=O)c2ccc(C)cc2)nc2ccccc21	-7.62
O=C(N/N=C\c1ccc(Cl)cc1)c1sccc1-n1cccc1	-6.64
COc1ccc(NC(=O)c2oc3ccccc3c2C)c(OC)c1	4.65
COc1ccccc1N1CCN(C(=O)COc2ccc(S(=O)(=O)NC(C)C)cc2)CC1	-4.64
CC(C)C1CC(CCNCc2ccc3c(c2)OCO3)(c2ccccc2)CCO1.Cl (centres unmarked)	-35.3
Cn1sc(NC(=O)c2ccc(Cl)cc2)nc1=O	7.93
O=C(NCCc1ccccc1)c1cc(-c2ccncc2)nc2ccc(S(=O)(=O)N3CCOCC3)cc12	18.6
CCCCNC(=O)COC(=O)c1c2c(nc3ccccc13)CCC2	-0.466
COc1cc(Cl)ccc1OCc1cc(C(=O)N(C)Cc2cccc3cnccc23)no1	-31.7
O=C(Cn1nnc2ccccc21)OCC(=O)c1ccc(Cl)cc1	-0.178
CS(=O)(=O)c1nc(-c2ccc(Br)cc2)n[nH]1	15.3

Structure (SMILES)	hERG current change (%, negative = inhibition) at 10uM [%]
CCCCn1c(N)c(N(CCC(C)C)C(=O)CSc2nnc3ccccn23)c(=O)[nH]c1=O	5.27
CSc1ccccc1OCc1cc(C(=O)NCCC2CCCCO2)no1 (centres unmarked)	9.84
Cc1c(Cl)cccc1NC(=S)N1CCN(c2ccc([N+](=O)[O-])cn2)CC1	2.33
Cc1onc(-c2c(F)cccc2Cl)c1C(=O)N=C(N)N1CCCC1	5.58
COCCNc1c2c(nc3c(-c4ccccc4)c(C)nn13)CCCC2	-1.34
COC(=O)c1cc(CNC(=O)c2sccc2-c2ccccc2)ccc1OC	-8.92
COc1cccc2c(=O)n(CC(=O)N3CCc4ccccc43)ccc12	-11.1
CCOc1ccc(OCC)c(NC(=O)C2CCN(S(=O)(=O)c3ccc4c(c3)CC(C)N4C(C)=O)CC2)c1 (centres unmarked)	-13.1
Cc1ccccc1-c1nc(C(=O)NCC2CCCO2)cc2c1[nH]c1ccccc12 (centres unmarked)	-19.2
CCC1=NN(C(=O)CCc2ccccc2)C(O)(C(F)(F)F)C1 (centres unmarked)	12.7
O=C(CSc1nnc(-c2ccncc2)n1Cc1ccco1)Nc1cccc(O)c1	0.158
O=C(NCCCN1CCC(Cc2ccccc2)CC1)C1CC(=O)N(C2CCCC2)C1 (centres unmarked)	-34.8
CCC/C=C1/CCCOC(C(=O)NCCN2CCOCC2)(C(F)(F)F)C1 (centres unmarked)	-3.23
NCCc1nnc(SCC(=O)Nc2cccc(Cl)c2)o1	21.8
CCN(C(=O)c1cccs1)c1nnc(-c2ccncc2)s1	-10.3
CC(=O)N1CC=C2C(C#N)=C(N)C(C#N)(C#N)[C@H](c3ccoc3)[C@H]2C1	-15.6
O=C(Cc1cccs1)Nc1ccccc1	16.9
CC1(C(=O)OCC(=O)Nc2ccc3ccccc3c2)CC1(Cl)Cl.CN(C)C=O (centres unmarked)	11.2
NCCCC(=O)O	19.2
CC1CCN(C(=O)COC(=O)c2n[nH]c3ccccc23)CC1	5.22
